# Measured values: the supplement of paper PMC8728848
# The list shows a part of the results.
# Legend:
# Assay in all cases: glycan array binding signal (z-score within array); higher = stronger binding
# Conditions in all cases: glycan notation: IUPAC condensed, linker removed
# Gal(a1-4)Gal(b1-4)Glc = biological target: Gal(a1-4)Gal(b1-4)Glc
# How it was run: (§1)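 Glycan array data came from 3228 arrays in the Consortium for Functional Glycomics database, and only arrays with an available protein sequence were kept. Glycan names were put into IUPAC-condensed notation, and columns mapping to the same glycan were averaged. The binding signal is a within-array Z-score, averaged across arrays of one protein sequence run at different concentrations or buffers and across linkers. A negative Z-score can be read as non-binding.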
# Gal(a1-4)Gal(b1-4)GlcNAc = biological target: Gal(a1-4)Gal(b1-4)GlcNAc
# How it was run: as §1
# Gal(a1-4)GlcNAc = biological target: Gal(a1-4)GlcNAc
# How it was run: as §1
# Gal(a1-6)Glc = biological target: Gal(a1-6)Glc
# How it was run: as §1
# Gal(b1-2)Gal = biological target: Gal(b1-2)Gal
# How it was run: as §1
# Gal(b1-3)Gal = biological target: Gal(b1-3)Gal
# How it was run: as §1
# Gal(b1-3)GalNAc = biological target: Gal(b1-3)GalNAc
# How it was run: as §1
# [1] = biological target: Gal(b1-3)GalNAc(b1-3)Gal(a1-4)Gal(b1-4)Glc
# How it was run: as §1
# [2] = biological target: Gal(b1-3)GalNAc(b1-4)Gal(b1-4)Glc
# How it was run: as §1
# [3] = biological target: Gal(b1-3)GalNAc(b1-4)[Neu5Ac(a2-3)]Gal(b1-4)Glc
# How it was run: as §1
# Gal(b1-3)GlcNAc = biological target: Gal(b1-3)GlcNAc
# How it was run: as §1
# [4] = biological target: Gal(b1-3)GlcNAc(b1-3)Gal(b1-4)Glc
# How it was run: as §1
# [5] = biological target: Gal(b1-3)GlcNAc(b1-3)Gal(b1-4)GlcNAc
# How it was run: as §1
# [6] = biological target: Gal(b1-3)[Fuc(a1-4)]GlcNAc
# How it was run: as §1
# [7] = biological target: Gal(b1-3)[Fuc(a1-4)]GlcNAc(b1-3)Gal(b1-4)GlcNAc
# How it was run: as §1
# [8] = biological target: Gal(b1-3)[Fuc(a1-4)]GlcNAc(b1-3)Gal(b1-4)[Fuc(a1-3)]GlcNAc
# How it was run: as §1
# [9] = biological target: Gal(b1-3)[GlcNAc(b1-6)]GalNAc
# How it was run: as §1
# [10] = biological target: Gal(b1-3)[Neu5Ac(a2-6)]GalNAc
# How it was run: as §1
# [11] = biological target: Gal(b1-3)[Neu5Ac(a2-6)]GlcNAc(b1-6)Gal(b1-4)Glc
# How it was run: as §1
# [12] = biological target: Gal(b1-3)[Neu5Ac(b2-6)]GalNAc
# How it was run: as §1
# [13] = biological target: Gal(b1-4)GalNAc(a1-3)[Fuc(a1-2)]Gal(b1-4)GlcNAc
# How it was run: as §1
# [14] = biological target: Gal(b1-4)GalNAc(b1-3)[Fuc(a1-2)]Gal(b1-4)GlcNAc
# How it was run: as §1
# Gal(b1-4)Glc = biological target: Gal(b1-4)Glc
# How it was run: as §1
# Gal(b1-4)Glc6S = biological target: Gal(b1-4)Glc6S
# How it was run: as §1
# Gal(b1-4)GlcNAc = biological target: Gal(b1-4)GlcNAc
# How it was run: as §1
# [15] = biological target: Gal(b1-4)GlcNAc(b1-2)Man(a1-3)[Gal(b1-4)GlcNAc(b1-2)Man(a1-6)]Man(b1-4)GlcNAc(b1-4)GlcNAc
# How it was run: as §1
# [16] = biological target: Gal(b1-4)GlcNAc(b1-3)Gal(b1-4)Glc
# How it was run: as §1
# [17] = biological target: Gal(b1-4)GlcNAc(b1-3)Gal(b1-4)GlcNAc
# How it was run: as §1
# [18] = biological target: Gal(b1-4)GlcNAc(b1-3)Gal(b1-4)GlcNAc(b1-3)Gal(b1-4)GlcNAc
# How it was run: as §1
# [19] = biological target: Gal(b1-4)GlcNAc(b1-3)Gal(b1-4)[Fuc(a1-3)]GlcNAc(b1-3)Gal(b1-4)[Fuc(a1-3)]GlcNAc
# How it was run: as §1
# [20] = biological target: Gal(b1-4)GlcNAc(b1-3)GalNAc
# How it was run: as §1
# [21] = biological target: Gal(b1-4)GlcNAc(b1-3)[Gal(b1-4)GlcNAc(b1-6)]GalNAc
# How it was run: as §1
# [22] = biological target: Gal(b1-4)GlcNAc(b1-6)Gal(b1-4)GlcNAc(b1-6)GalNAc
# How it was run: as §1
# [23] = biological target: Gal(b1-4)GlcNAc(b1-6)GalNAc
# How it was run: as §1
# [24] = biological target: Gal(b1-4)GlcNAc(b1-6)[Gal(b1-3)]GalNAc
# How it was run: as §1
# Gal3S(b1-3)GalNAc = biological target: Gal3S(b1-3)GalNAc
# How it was run: as §1
# Gal3S(b1-3)GlcNAc = biological target: Gal3S(b1-3)GlcNAc
# How it was run: as §1
# [25] = biological target: Gal3S(b1-3)[Fuc(a1-4)]GlcNAc
# How it was run: as §1
# Gal3S(b1-4)Glc = biological target: Gal3S(b1-4)Glc
# How it was run: as §1
# Gal3S(b1-4)Glc6S = biological target: Gal3S(b1-4)Glc6S
# How it was run: as §1
# Gal3S(b1-4)GlcNAc = biological target: Gal3S(b1-4)GlcNAc
# How it was run: as §1
# Gal3S(b1-4)GlcNAc6S = biological target: Gal3S(b1-4)GlcNAc6S
# How it was run: as §1
# Gal3S6S(b1-4)GlcNAc = biological target: Gal3S6S(b1-4)GlcNAc
# How it was run: as §1
# Gal3S6S(b1-4)GlcNAc6S = biological target: Gal3S6S(b1-4)GlcNAc6S
# How it was run: as §1
# Gal4S(b1-4)GlcNAc = biological target: Gal4S(b1-4)GlcNAc
# How it was run: as §1
binder,measurement,setting,value
LKPARMA (Neurospora crassa) (protein) MSFHVTAEDARRIEVRDNRTILFARLRREDGEWNDASYELDQIIGNNDGHFQWGGGQNFTETAEDIRFHPKEGAAEQPILRARLRDCNGEFHDRDVNLTEIVENVNGEFQAKF,glycan array binding signal (z-score),Gal(a1-4)Gal(b1-4)Glc,0.2
same,glycan array binding signal (z-score),Gal(a1-4)Gal(b1-4)GlcNAc,0.317
same,glycan array binding signal (z-score),Gal(a1-4)GlcNAc,-0.229
same,glycan array binding signal (z-score),Gal(a1-6)Glc,2.85
same,glycan array binding signal (z-score),Gal(b1-2)Gal,-0.251
same,glycan array binding signal (z-score),Gal(b1-3)Gal,-0.246
same,glycan array binding signal (z-score),Gal(b1-3)GalNAc,-0.251
same,glycan array binding signal (z-score),[1],0.128
same,glycan array binding signal (z-score),[2],-0.25
same,glycan array binding signal (z-score),[3],-0.25
same,glycan array binding signal (z-score),Gal(b1-3)GlcNAc,-0.249
same,glycan array binding signal (z-score),[4],4.93
same,glycan array binding signal (z-score),[5],-0.249
same,glycan array binding signal (z-score),[6],-0.251
same,glycan array binding signal (z-score),[7],-0.246
same,glycan array binding signal (z-score),[8],-0.249
same,glycan array binding signal (z-score),[9],-0.251
same,glycan array binding signal (z-score),[10],-0.234
same,glycan array binding signal (z-score),[11],5.09
same,glycan array binding signal (z-score),[12],-0.251
same,glycan array binding signal (z-score),[13],-0.149
same,glycan array binding signal (z-score),[14],-0.246
same,glycan array binding signal (z-score),Gal(b1-4)Glc,-0.222
same,glycan array binding signal (z-score),Gal(b1-4)Glc6S,-0.25
same,glycan array binding signal (z-score),Gal(b1-4)GlcNAc,-0.252
same,glycan array binding signal (z-score),[15],-0.245
same,glycan array binding signal (z-score),[16],1.9
same,glycan array binding signal (z-score),[17],-0.252
same,glycan array binding signal (z-score),[18],-0.252
same,glycan array binding signal (z-score),[19],-0.087
same,glycan array binding signal (z-score),[20],-0.249
same,glycan array binding signal (z-score),[21],-0.252
same,glycan array binding signal (z-score),[22],-0.252
same,glycan array binding signal (z-score),[23],-0.25
same,glycan array binding signal (z-score),[24],-0.252
same,glycan array binding signal (z-score),Gal3S(b1-3)GalNAc,-0.25
same,glycan array binding signal (z-score),Gal3S(b1-3)GlcNAc,-0.247
same,glycan array binding signal (z-score),[25],-0.196
same,glycan array binding signal (z-score),Gal3S(b1-4)Glc,-0.23
same,glycan array binding signal (z-score),Gal3S(b1-4)Glc6S,-0.135
same,glycan array binding signal (z-score),Gal3S(b1-4)GlcNAc,-0.251
same,glycan array binding signal (z-score),Gal3S(b1-4)GlcNAc6S,-0.25
same,glycan array binding signal (z-score),Gal3S6S(b1-4)GlcNAc,0.049
same,glycan array binding signal (z-score),Gal3S6S(b1-4)GlcNAc6S,-0.189
same,glycan array binding signal (z-score),Gal4S(b1-4)GlcNAc,-0.249
